Results as given in ChEMBL document CHEMBL1201862, “PubChem BioAssay data set” (2004).
Values joined by “and” are separate entries in the source; they are usually repeats but may differ in a detail not shown here. Identical values can stand only once.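 Grown in 96-well plates, cells were treated for 48 hours with each compound at five concentrations. Insufficient inhibition: endpoint recorded as highest concentration tested. GI50 = concentration required for 50% inhibition of growth.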 Active and inactive are the calls of the source. Rule as the data show it: active = GI50 up to about 1.1 µM and inactive = higher.

system: NCI-H322M; test: growth of human tumour cells (NCI), 48 h

| SMILES | GI50 |
| --- | --- |
| COc1nc(C(Cl)(Cl)Cl)c(Cl)c(O)c1Cl | inactive: > 100 µM |
| O=C(O)c1cc2c3ccccc3nc-2c[nH]1 | inactive: > 100 µM |
| Nc1sc2c(c1C(=O)c1ccc(Cl)c(Cl)c1)CCCC2 | inactive: 15.1 µM |
| O=C1Nc2ccccc2C1Cc1ccccc1 (stereo not given) | inactive: > 100 µM |
| COC(=O)c1ccc(NCc2c(O)ccc(O)c2Br)cc1Cl | inactive: 54.2 µM |
| CN/N=C(/CCN1CCCC1)CC(c1ccccc1)c1c(O)c2ccccc2oc1=O (stereo not given) | inactive: > 100 µM |
| CN1CCN(P2(=S)Oc3ccc4ccccc4c3-c3c(ccc4ccccc34)O2)CC1 | inactive: 54.8 µM |
| COC(=O)c1c(O)ccc2c1c1c(n2Cc2ccccc2Cl)C(=O)c2ccccc2C1=O | inactive: 14.4 µM |
| Cc1cc2sc(C)[n+](CCCOS(=O)(=O)[O-])c2cc1C | inactive: > 100 µM |
| Clc1cc2ns[s+]c2cc1Cl | inactive: > 100 µM |
| COc1cc(C(O)C(=O)c2nc3ccc([N+](=O)[O-])cc3nc2O)ccc1O (stereo not given) | inactive: > 100 µM |
| Cc1ccc(/C=C/C(=O)c2sc(-c3cccnc3)nc2C)cc1 | inactive: > 100 µM |
| CC1=NN(c2nc(N)nc(/C(C#N)=C\c3cccc([N+](=O)[O-])c3)n2)C(C)(C)C1 | inactive: 25.3 µM |
| COC(=O)c1cc(C)ccc1/C=C1\Cc2c(C)cc(C)cc2C1=O | inactive: > 73.6 µM |
| COc1ccc(N2C(=O)CSC2c2cc3cc(Br)ccc3nc2Cl)cc1 (stereo not given) | inactive: > 50 µM |
| CC(C)C(/C=C/c1ccc(Br)cc1)=N\NC(N)=O | inactive: > 100 µM |
| COc1ccc2nc3cc(Cl)ccc3c(NCCCCCC(=O)NC(COc3cnc4c(ccc5cccnc54)c3)COc3cnc4c(ccc5cccnc54)c3)c2c1 | inactive: 18.6 µM |
| COC(=O)C1=C(C)NC2(O)C=CC(=O)C3C(=O)N(c4ccccc4)C(=O)C132 (stereo not given) | inactive: > 100 µM |
| O=c1c2cc(Br)ccc2[nH]c(=S)n1-c1ccc(Br)cc1 | inactive: > 100 µM |
| CCC(=O)COc1ccc(NC(NC(=O)C(C(F)(F)F)C(F)(F)F)(C(F)(F)F)C(F)(F)F)cc1 | inactive: > 100 µM |
| CCCCCCCC/C=C\CCCCCCC(F)C(=O)O (stereo not given) | inactive: > 12.5 µM |
| COc1ccc(C2C3CCCC(C3=O)C(c3ccc(OC)cc3)N2N=O)cc1 (stereo not given) | inactive: 70.8 µM |
| Cc1ccc(S(=O)(=O)C2c3nc4ccccc4cc3-c3nc4ccccc4nc32)cc1 (stereo not given) | inactive: > 100 µM |

| SMILES | GI50 |
| --- | --- |
| CCc1ccccc1NC(=O)CC1NC(=O)CS1 (stereo not given) | inactive: > 100 µM |
| COc1cc(/C=C(/C#N)C(N)=O)ccc1O | inactive: > 100 µM |
| CCn1c(SCC(=O)NNC(=S)Nc2ccc([N+](=O)[O-])cc2)nc2ccccc2c1=O | inactive: 67.8 µM |
| C=CCN1C(=O)/C(=C/c2ccccc2)NC1=S | inactive: > 100 µM |
| CCOC(=O)CCC(C(=O)OCC)n1nnc2cc(Nc3c(C)[n+]([O-])c4ccc(Cl)cc4[n+]3[O-])ccc21 (stereo not given) | inactive: > 100 µM |
| CN1C(=O)C(C(=O)Nc2ccccn2)C2C[C@@]1(C)Oc1ccccc12 (stereo not given in full) | inactive: > 100 µM |
| CN(C)CCCCCNc1c2ccccc2nc2cccc([N+](=O)[O-])c12 | active: 0.0031 µM |
| CCOC(=O)/C=C(/OCC)[C@@H]1C(C(=O)c2ccc(Cl)cc2)[C@H]1/C(=C\C(=O)OCC)OCC (stereo not given in full) | inactive: > 100 µM |
| COC(=O)C1=C(C)NC(C)=C(C(=O)OC)C1c1cccc(/[N+]([O-])=C/c2ccccc2)c1 | inactive: > 100 µM |
| O=C1Nc2ccccc2/C1=C/c1ccccc1 | inactive: 15.9 µM |
| COc1cc2ccnc(-c3c4ccccc4c(N)c4c(OC)c(OC)ccc34)c2cc1OC | inactive: 2.43 µM |
| O=c1c2ccccc2nnn1-c1n[nH]c2ccccc12 | inactive: > 100 µM |
| Cc1ccc(S(=O)(=O)N/N=C(\C(=O)Nc2cccc([N+](=O)[O-])c2)c2nc3ccc([N+](=O)[O-])cc3nc2O)cc1 | inactive: > 100 µM |
| CCOc1ccc(C2c3[nH]c4ccccc4c3CCN2C(=O)c2cccs2)cc1 (stereo not given) | inactive: 15.1 µM |
| CC(=O)NN/C=N/C(C#N)=C(\N)C#N | inactive: > 100 µM |
| CCOC(C[C@H](O)[C@H]1COC(=S)S1)OCC | inactive: > 100 µM |
| COC1=CC(c2ccc(Br)[nH]2)=N/C1=C/NCC(C)C | inactive: 3.41 µM |
| Cc1ccc(S(=O)(=O)N/N=C(\c2nc3ccc([N+](=O)[O-])cc3[nH]c2=O)C(O)c2ccc([N+](=O)[O-])cc2)cc1 (stereo not given) | inactive: > 100 µM |
| NC1CCCCC1NCCNC1CCCCC1N (stereo not given) | inactive: 80.4 µM |
| Cc1cnc(Cl)nc1C(C#N)c1nc2ccccc2n1C (stereo not given) | inactive: 30.3 µM |
| CC(C)c1ccc(O)c(Cc2cc(C(C)C)cc(Cc3cc(C(C)C)ccc3O)c2O)c1 | inactive: 1.84 µM |
| C#CC1(OC(C)=O)CCC2C3CC=C4C=C(OC(C)=O)CCC4(C)C3CCC21C (stereo not given) | inactive: 31.6 µM |
| C(=C(c1ccc(OC2CCCCO2)cc1)c1ccc(OC2CCCCO2)cc1)c1ccccc1 (stereo not given) | inactive: 1.15 µM |

| SMILES | GI50 |
| --- | --- |
| O=C1CC(/C=C/c2ccco2)=C(O)C1=O | inactive: 12.3 µM |
| CN1C(=S)CSc2ccccc21 | inactive: > 100 µM |
| CC(=O)OCC1(C)C(O)CCC2(C)C1CCC1CC3CC12CCC3(O)CO (stereo not given) | inactive: > 100 µM |
| N#CCCN(CCC#N)c1ccc(/C=N\c2ccc(F)cc2)cc1 | inactive: > 66.7 µM |
| CC(=O)NC1=C(C)C(=O)c2c(nc3n2CC[C@H]3OC(C)=O)C1=O | inactive: 4.74 µM |
| O=C1N/C(=N/N=C\C(O)C(O)C(O)CO)N/C1=C/c1ccccc1 (stereo not given) | inactive: > 100 µM |
| CN(CCCCCl)P(=O)(OCc1ccc([N+](=O)[O-])o1)OCC1OC(n2ccc(N)nc2=O)C(O)C1O (stereo not given) | inactive: 17.3 µM |
| O=C1c2ccccc2NC1(c1ccccc1)c1c(-c2ccccc2)[nH]c2ccccc12 (stereo not given) | inactive: 83.9 µM |
| O=S(=O)(c1ccccc1)C(CN1CCCCC1)S(=O)(=O)c1ccccc1 | inactive: > 100 µM |
| O=[N+]([O-])C[C@@]12O[C@]3(O)C4C5CC(C6C5C3C61)C42 (stereo not given in full) | inactive: > 100 µM |
| CCSc1nnc(Sc2c3ccccc3nc3ccccc23)s1 | inactive: 21.7 µM |
| CCOC(=O)C1=NOC2(C=C(Br)C(=O)C(Br)=C2)C1 | inactive: 16.2 µM |
| CCN(CCN(CC)C(=O)Nc1ccccc1)C(=O)Nc1ccccc1 | inactive: > 100 µM |
| COc1cc2c(cc1C)NC(=O)/C2=C\c1cccnc1 | inactive: 16.3 µM |
| C/C(=C\CNc1ncnc2[nH]c(Cl)nc12)CO | inactive: > 100 µM |
| Fc1cccc(Cl)c1C1SCc2nc3cc4ccccc4cc3n21 (stereo not given) | inactive: > 100 µM |
| Nc1nc(Cl)cc(NCC2(CO)CC(CCCc3ccccc3)C2)n1 (stereo not given) | inactive: > 100 µM |
| C#CCN(Cc1ccc2nc(-c3ccccc3)c(N)nc2c1)c1cc(OC)c(OC)c(OC)c1 | inactive: 56.2 µM |
| CCCCCCCCCCCC[C@H](O)[C@H]1CC[C@H]([C@H](O)CCCC[C@H](O)CCCCC[C@@H](O)CC2=C[C@H](C)OC2=O)O1 | inactive: 6.34 µM |
| CNC(=O)OCc1cc2ccncc2c2c1[nH]c1ccccc12 | inactive: > 100 µM |
| CNC1=Nc2ccc(Cl)cc2C(c2ccccc2)=NN1C | inactive: > 100 µM |
| COc1ccc2nc3cc(Cl)ccc3c(Sc3ccccc3[N+](=O)[O-])c2c1 | inactive: > 100 µM |
| CCCCCCc1cc2cc(C(=O)Nc3cccc(F)c3)c(=N)oc2cc1O | inactive: 2.69 µM |

| SMILES | GI50 |
| --- | --- |
| COC(=O)C(Cc1ccccc1)NP(=O)(O)OCC1OC(n2ccc(N)nc2=O)C(O)C1O (stereo not given) | inactive: > 100 µM |
| O=C1/C(=C/c2ccccc2)CN(C(=O)C(F)(F)F)C/C1=C\c1ccccc1 | inactive: 6.87 µM |
| O=C(Nc1cccc2c1[nH]c1c(-c3ccccc3)nccc12)c1ccccc1[N+](=O)[O-] | inactive: 88.1 µM |
| Cc1nn(-c2ccccc2)c2nc3ccc(Cl)cc3c(-c3ccccc3)c12 | inactive: > 100 µM |
| CCOC(=O)C1=C(C)NC(=O)NC1c1ccc(N(CCCl)CCCl)cc1Cl (stereo not given) | inactive: 18.1 µM |
| CCOC(=O)NN(C(=O)OCC)C(C(=O)C1=CCCCC1)N(NC(=O)OCC)C(=O)OCC | inactive: > 100 µM |
| N#Cc1nc(C(CO)N(Cc2ccccc2)C(=O)O)oc1N (stereo not given) | inactive: > 100 µM |
| Nc1nc(Cl)cc(NCC2(CO)CC(OCc3ccccc3)C2)n1 (stereo not given) | inactive: > 100 µM |
| Nc1n[nH]c2c1Cc1c(n(Cc3ccc(Cl)cc3)c3ccccc13)C(=O)N2 | inactive: 13.9 µM |
| Cn1cnc([N+](=O)[O-])c1Sc1nnnn1-c1ccccc1 | inactive: 31.9 µM |
| CC(C)(C)OC(=O)NCC(c1c[nH]c2ccc(Br)cc12)c1c[nH]c2ccc(Br)cc12 | inactive: 8.38 µM |
| Cc1ccccc1-n1c(=S)[nH]c2c(sc(=O)n2-c2ccccc2C)c1=O | inactive: > 100 µM |
| Cc1cccc(Nc2cn(COCc3ccccc3)c(=O)[nH]c2=O)c1 | inactive: > 100 µM |
| COc1cc(/C=N/N=C2NCCCCN2)ccc1O | inactive: > 100 µM |
| CC1OC(OC2C(OC(=O)[C@]34CCC(C)(C)C[C@H]3C3=CC[C@@H]5[C@@]6(C)CC[C@H](OC7OC(CO)C(O)C(O)C7OC7OC(CO)C(O)C(O)C7O)C(C)(C)[C@@H]6CC[C@@]5(C)[C@]3(C)CC4)OCC(O)C2O)C(O)C(O)C1OC1OCC(O)C(OC2OCC(O)C(O)C2O)C1O (stereo not given in full) | inactive: 3.01 µM and inactive: 2.64 µM |
| COC1C=COC2(C)Oc3c(C)c(O)c4c(O)c(c(C5SCCS5)c(O)c4c3C2=O)NC(=O)C(C)=C/C=C\C(C)C2OC(C)(C)OC(C2C)C(C)C(OC(C)=O)C1C (stereo not given) | inactive: 16.6 µM |
| COC(=O)C1(C)C=CC(=O)C2(C)C1C(O)C1OC3CC(c4ccoc4)C(C)=C3C1(C)C2CC(=O)O (stereo not given) | inactive: > 100 µM |
| Cc1ccc(C(=O)Nc2ccc(CP(=O)(O)O)cc2CP(=O)(O)O)cc1NC(=O)c1cccc(NC(=O)Nc2cccc(C(=O)Nc3cc(C(=O)Nc4ccc(CP(=O)(O)O)cc4CP(=O)(O)O)ccc3C)c2)c1 | inactive: > 100 µM |
| C=C(C)C1C/C=C(/C)CCCC2(CCC3=C(CC(C(=C)C)C/C=C(/C)CCC3)O2)C(=O)C1 (stereo not given) | inactive: > 100 µM |
| COC(=O)c1cc(/C=C\c2cc(OC)ccc2OC)ccc1OC | inactive: 36 µM |
| Nn1c(CCCCCCCCc2nnc(COc3ccc4ccccc4c3O)n2N)nnc1COc1ccc2ccccc2c1O | inactive: 47 µM |
